13 sequences from paper PMC5700166 can be followed below.

Test in all cases: protein-binding microarray (PBM)
Holding throughout (conditions): PBM: ~300 nM protein, 6 mM HEPES pH 7.8, 80 mM KCl, 0.5 mM EDTA, 0.5 mM EGTA, 6% glycerol, 35 ng/ul poly-dIdC, 1% milk, 1 h, room temperature; Ap Aiptasia and Nv Nematostella (sea anemones) / Co Capsaspora / Aq Amphimedon (sponge) / Dm Drosophila / Hu human; RHD is the Rel homology domain; high values mean tight binding; most listed sequences are background and not binding sites; double strand, one strand shown

One assay concerns the target T1, GST-Ap-NF-kB RHD (UniProt A0A913YAJ5).
T1 sequence: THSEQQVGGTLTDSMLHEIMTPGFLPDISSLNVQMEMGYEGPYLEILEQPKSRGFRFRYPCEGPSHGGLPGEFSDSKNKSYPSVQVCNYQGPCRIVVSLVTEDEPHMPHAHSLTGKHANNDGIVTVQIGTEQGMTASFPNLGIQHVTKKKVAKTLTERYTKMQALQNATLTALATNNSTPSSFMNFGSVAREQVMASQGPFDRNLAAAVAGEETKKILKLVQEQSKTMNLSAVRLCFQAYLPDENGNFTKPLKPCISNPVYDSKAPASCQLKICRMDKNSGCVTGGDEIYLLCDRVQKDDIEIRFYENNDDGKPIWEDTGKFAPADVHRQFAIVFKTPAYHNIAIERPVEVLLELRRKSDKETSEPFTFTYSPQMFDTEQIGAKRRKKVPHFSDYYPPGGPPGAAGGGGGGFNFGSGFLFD

In assay [1] the target is T2, GST-Nv-NF-kB (Cys allele) (UniProt E5G601).
T2 sequence: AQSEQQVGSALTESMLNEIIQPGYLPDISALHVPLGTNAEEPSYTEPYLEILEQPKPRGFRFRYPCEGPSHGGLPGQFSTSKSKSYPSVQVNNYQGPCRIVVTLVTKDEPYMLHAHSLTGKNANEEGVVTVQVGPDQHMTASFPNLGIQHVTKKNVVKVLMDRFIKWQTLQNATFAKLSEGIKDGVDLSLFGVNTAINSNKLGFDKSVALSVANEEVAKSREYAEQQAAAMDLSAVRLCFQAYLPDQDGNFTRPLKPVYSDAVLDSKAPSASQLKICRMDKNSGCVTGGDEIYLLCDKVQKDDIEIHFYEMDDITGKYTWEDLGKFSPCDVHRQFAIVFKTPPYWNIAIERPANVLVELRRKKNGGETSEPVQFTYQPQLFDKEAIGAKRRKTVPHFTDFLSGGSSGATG

Another assay addresses T3, GST-Co-NF-kB (UniProt F1ARL5).
T3 sequence: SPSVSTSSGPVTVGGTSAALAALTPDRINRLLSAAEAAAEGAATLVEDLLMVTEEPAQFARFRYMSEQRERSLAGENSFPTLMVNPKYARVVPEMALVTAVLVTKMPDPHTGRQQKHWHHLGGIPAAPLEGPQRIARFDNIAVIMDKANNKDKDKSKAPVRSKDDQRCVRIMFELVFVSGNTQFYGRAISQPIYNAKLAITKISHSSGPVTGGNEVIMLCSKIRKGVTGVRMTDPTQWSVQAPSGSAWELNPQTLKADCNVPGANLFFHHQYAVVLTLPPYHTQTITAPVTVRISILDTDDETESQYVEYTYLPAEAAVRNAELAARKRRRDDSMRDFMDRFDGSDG

In a further assay the target is T4, GST-Dm-Relish (UniProt Q94527).
T4 sequence: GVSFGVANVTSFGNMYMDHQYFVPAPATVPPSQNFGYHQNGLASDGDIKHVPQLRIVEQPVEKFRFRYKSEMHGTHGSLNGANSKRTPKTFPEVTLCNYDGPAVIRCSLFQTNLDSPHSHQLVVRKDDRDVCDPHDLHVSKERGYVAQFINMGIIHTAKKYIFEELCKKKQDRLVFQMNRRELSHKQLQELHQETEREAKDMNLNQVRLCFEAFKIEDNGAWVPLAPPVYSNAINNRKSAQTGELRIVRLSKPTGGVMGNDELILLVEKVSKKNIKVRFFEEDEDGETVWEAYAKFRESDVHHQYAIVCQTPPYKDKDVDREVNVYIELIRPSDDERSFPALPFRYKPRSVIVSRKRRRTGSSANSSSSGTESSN

In a further assay the target is T5, GST-Aq-NF-kB (UniProt A9Y5G7).
T5 sequence: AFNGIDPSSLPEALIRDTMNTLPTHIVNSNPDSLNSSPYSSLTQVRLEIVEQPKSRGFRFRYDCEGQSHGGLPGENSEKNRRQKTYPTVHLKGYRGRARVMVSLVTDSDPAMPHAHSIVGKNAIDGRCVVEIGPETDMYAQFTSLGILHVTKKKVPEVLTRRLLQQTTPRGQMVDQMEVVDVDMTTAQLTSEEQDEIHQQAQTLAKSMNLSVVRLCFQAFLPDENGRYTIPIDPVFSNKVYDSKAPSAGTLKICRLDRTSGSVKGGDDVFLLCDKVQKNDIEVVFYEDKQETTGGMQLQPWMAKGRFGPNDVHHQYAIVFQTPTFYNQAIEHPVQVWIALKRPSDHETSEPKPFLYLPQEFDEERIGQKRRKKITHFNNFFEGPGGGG

Only a part is listed here, and it is no random draw. The list includes weakly bound sequences.

Turning to “CCGATTAACATCACTTTCGGCAATGATGTTAATCGGGTCTTGATTCGCTTGACGCTGCTG”, the binding signal with GST-Ap-NF-kB RHD was -0.462 z-score; in assay [1] it was 0.0244 z-score; with GST-Co-NF-kB, -0.114 z-score; in the assay with GST-Dm-Relish, 0.446 z-score; with GST-Aq-NF-kB it was -0.494 z-score.

On to “CCGATTAACATCACGAAGAGGCATGATGTTAATCGGGTCTTGATTCGCTTGACGCTGCTG”, for which the binding signal is 0.269 z-score with GST-Ap-NF-kB RHD; 0.142 z-score in assay [1]; 0.513 z-score with GST-Co-NF-kB; -0.298 z-score in the assay with GST-Dm-Relish; -0.291 z-score with GST-Aq-NF-kB.

Take “CCGATTAACATCATAAAGATTTATGATGTTAATCGGGTCTTGATTCGCTTGACGCTGCTG”: the binding signal was -1.41 z-score with GST-Ap-NF-kB RHD; -1.12 z-score in assay [1]; -1.59 z-score in the assay with GST-Co-NF-kB; 0.14 z-score with GST-Dm-Relish; -0.253 z-score in the assay with GST-Aq-NF-kB.

“CCGATTAACATCAGCTCGGTGTGTGATGTTAATCGGGTCTTGATTCGCTTGACGCTGCTG”: the binding signal with GST-Ap-NF-kB RHD is 0.363 z-score; in assay [1] it was -0.29 z-score; with GST-Co-NF-kB, 0.243 z-score; with GST-Dm-Relish, 0.489 z-score; with GST-Aq-NF-kB, -0.177 z-score.

“CCGATTAACATCAACAGAGTGCGTGATGTTAATCGGGTCTTGATTCGCTTGACGCTGCTG”: the binding signal was -0.284 z-score in the assay with GST-Ap-NF-kB RHD; -0.267 z-score in assay [1]; 0.0114 z-score with GST-Co-NF-kB; -0.125 z-score in the assay with GST-Dm-Relish; -0.369 z-score with GST-Aq-NF-kB.

As for “CCGATTAACATCAAGAGAATTCCTGATGTTAATCGGGTCTTGATTCGCTTGACGCTGCTG”, the binding signal in the assay with GST-Ap-NF-kB RHD was -0.425 z-score; in assay [1], -0.164 z-score; in the assay with GST-Co-NF-kB, -0.61 z-score; with GST-Dm-Relish it was -0.0152 z-score; in the assay with GST-Aq-NF-kB, 0.794 z-score.

For “CCGATTAACATCAAAAAATCCCGTGATGTTAATCGGGTCTTGATTCGCTTGACGCTGCTG”, the binding signal amounted to 5.57 z-score with GST-Ap-NF-kB RHD; 6.22 z-score in assay [1]; 2.99 z-score in the assay with GST-Co-NF-kB; 8.31 z-score in the assay with GST-Dm-Relish; 6.71 z-score in the assay with GST-Aq-NF-kB.

In the case of “CCGATTAACATCATGCCGTCATATGATGTTAATCGGGTCTTGATTCGCTTGACGCTGCTG”, the binding signal with GST-Ap-NF-kB RHD was -0.00116 z-score; in assay [1] it was 0.114 z-score; with GST-Co-NF-kB it was -0.612 z-score; in the assay with GST-Dm-Relish, -0.168 z-score; with GST-Aq-NF-kB it was -0.463 z-score.

In the case of “CCGATTAACATCAGGGTTGCAACTGATGTTAATCGGGTCTTGATTCGCTTGACGCTGCTG”, the binding signal with GST-Ap-NF-kB RHD was -0.256 z-score; in assay [1] it was -0.268 z-score; with GST-Co-NF-kB it was -0.578 z-score; with GST-Dm-Relish it was -0.208 z-score; in the assay with GST-Aq-NF-kB it was -0.51 z-score.

Turning to “CCGATTAACATCAAGATATTCCCTGATGTTAATCGGGTCTTGATTCGCTTGACGCTGCTG”, the binding signal with GST-Ap-NF-kB RHD is 4.46 z-score; in assay [1], 4.57 z-score; with GST-Co-NF-kB, 3.05 z-score; with GST-Dm-Relish it was 2.34 z-score; with GST-Aq-NF-kB it was 4.02 z-score.

For the sequence “CCGATTAACATCATTCCGCGGTGTGATGTTAATCGGGTCTTGATTCGCTTGACGCTGCTG”, the binding signal is 0.479 z-score with GST-Ap-NF-kB RHD; -0.467 z-score in assay [1]; -0.781 z-score with GST-Co-NF-kB; 0.205 z-score with GST-Dm-Relish; -0.142 z-score with GST-Aq-NF-kB.

Consider “CCGATTAACATCAGCGTGACTTTTGATGTTAATCGGGTCTTGATTCGCTTGACGCTGCTG”, for which the binding signal in the assay with GST-Ap-NF-kB RHD was -0.19 z-score; in assay [1] it was -0.326 z-score; with GST-Co-NF-kB it was 0.234 z-score; with GST-Dm-Relish it was 1.47 z-score; with GST-Aq-NF-kB, -0.389 z-score.

Turning to “CCGATTAACATCACTAACATTCCTGATGTTAATCGGGTCTTGATTCGCTTGACGCTGCTG”, the binding signal in the assay with GST-Ap-NF-kB RHD was found to be 0.501 z-score; in assay [1] it was 0.00591 z-score; with GST-Co-NF-kB, 0.876 z-score; with GST-Dm-Relish, 0.439 z-score; with GST-Aq-NF-kB it was 0.142 z-score.
